Reference: publication PMC4336329 (PLoS ONE, 2015)
Hit rate of the full screen: of about 310,000 compounds, about 2,200 (0.71%) showed an effect of 50% or more. The effect is printed as a negative number. The list shows a part of the results.

molecular target: human ether-à-go-go-related gene (hERG) potassium channel (human, UniProt Q12809); assay: primary screen, population patch clamp on CHO cells stably expressing hERG
Sequence (Q12809 whole entry, looked up): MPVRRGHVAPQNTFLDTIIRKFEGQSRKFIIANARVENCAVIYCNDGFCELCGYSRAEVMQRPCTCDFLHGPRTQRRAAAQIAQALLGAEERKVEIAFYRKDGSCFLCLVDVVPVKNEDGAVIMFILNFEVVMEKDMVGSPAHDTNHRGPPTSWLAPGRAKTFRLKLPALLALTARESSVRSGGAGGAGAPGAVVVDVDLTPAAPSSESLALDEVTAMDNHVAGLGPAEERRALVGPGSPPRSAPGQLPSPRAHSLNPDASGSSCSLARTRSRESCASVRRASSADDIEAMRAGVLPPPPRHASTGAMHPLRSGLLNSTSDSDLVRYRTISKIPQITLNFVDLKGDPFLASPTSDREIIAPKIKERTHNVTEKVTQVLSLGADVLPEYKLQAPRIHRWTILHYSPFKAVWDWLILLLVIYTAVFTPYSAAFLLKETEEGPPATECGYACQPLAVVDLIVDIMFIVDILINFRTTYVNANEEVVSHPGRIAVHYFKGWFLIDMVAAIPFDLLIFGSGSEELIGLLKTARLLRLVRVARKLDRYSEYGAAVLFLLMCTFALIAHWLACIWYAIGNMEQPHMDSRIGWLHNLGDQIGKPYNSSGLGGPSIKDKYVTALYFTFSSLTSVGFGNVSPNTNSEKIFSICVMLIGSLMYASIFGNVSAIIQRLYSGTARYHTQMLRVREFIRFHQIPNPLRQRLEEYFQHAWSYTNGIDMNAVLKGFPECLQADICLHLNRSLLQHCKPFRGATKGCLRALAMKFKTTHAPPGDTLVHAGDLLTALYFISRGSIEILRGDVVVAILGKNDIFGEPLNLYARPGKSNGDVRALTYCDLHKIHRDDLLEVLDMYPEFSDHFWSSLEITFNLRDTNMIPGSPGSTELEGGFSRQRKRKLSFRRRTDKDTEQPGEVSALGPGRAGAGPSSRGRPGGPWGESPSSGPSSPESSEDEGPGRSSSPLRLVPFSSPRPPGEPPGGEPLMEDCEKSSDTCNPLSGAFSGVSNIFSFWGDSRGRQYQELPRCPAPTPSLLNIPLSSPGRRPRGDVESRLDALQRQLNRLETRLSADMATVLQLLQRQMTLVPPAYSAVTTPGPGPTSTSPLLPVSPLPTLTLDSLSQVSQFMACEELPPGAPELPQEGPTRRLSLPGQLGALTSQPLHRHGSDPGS

SMILES | hERG current change (%, negative = inhibition) at 1uM [%]
Cc1[nH]c2ccccc2c(=O)c1C(=O)/C=C/c1ccccc1 | 7.73
COc1ccccc1Cn1cnc2cccnc21 | 15.1
CN(C)S(=O)(=O)c1ccc(Cl)c(C(=O)NCCNC(=O)c2cc(S(=O)(=O)N(C)C)ccc2Cl)c1 | 15.4
O=C1COc2ccc(S(=O)(=O)N3CCCC3)cc2N1 | 18.1
Cn1c(=O)c(C(=O)NCc2ccccc2)c(O)c2ccccc21 | 14.6
CC(C)Cc1nnc(NC(=O)C2=COCCO2)s1 | 30
CC(=O)NC1=NN(C(C)=O)C(C)(CCS(=O)(=O)c2ccc(Cl)c(Cl)c2)S1 (stereo not shown) | 1.23
COc1cc(N=Cc2c(O)c3ccccc3oc2=O)c(OC)cc1Cl | 13.1
COC(=O)c1c(C)oc(C)c1S(=O)(=O)NCc1ccc(OC)cc1 | 11.2
CCOc1ccc(C(=O)NCCN2CCOCC2)cc1 | 9.53
Cc1ccc(C(=O)OCC(=O)NCc2ccc3c(c2)OCO3)s1 | 1.35
O=C(NN=C1CCCCCC1)c1cccs1 | 10.2
CCn1nc(C)c(C2C(C#N)=C(N)OC3=C2C(=O)CCC3)c1C (stereo not shown) | 10.6
COc1cccc(C(=O)Nc2nnc(CCS(=O)(=O)c3ccc(C)cc3)s2)c1 | 19.8
Nc1cc(=O)[nH]c(SCC(=O)Nc2ccccc2Sc2ccc(Cl)cc2)n1 | 16.8
O=C(OCc1ccc(F)cc1)c1cc(=O)c2ccccc2o1 | 11.9
COc1ccc(CN2CCC(n3nccc3NC(=O)C3CC3)CC2)c(Cl)c1OC | -2.09
COc1ccc(NS(=O)(=O)c2c(C)[nH]c(C)c2C(=O)N2CCCCC2)cc1Cl | 5.53
CC(Sc1nccn1C)C(=O)c1c(N)n(C)c(=O)n(C)c1=O (stereo not shown) | 17.8
COc1ccc(N(CC(=O)NCc2ccccc2)S(=O)(=O)c2c(C)n[nH]c2C)cc1 | 4.24
Nc1ccc(Cc2ccc(N)c(C(=O)O)c2)cc1C(=O)O | 21.6
COc1cc(S(=O)(=O)N2CCOCC2)ccc1NC(=O)COC(=O)C12CC3CC(CC(C3)C1)C2 | -4.67

SMILES | hERG current change (%, negative = inhibition) at 1uM [%]
Cc1c(C)n(CCc2c[nH]c3ccccc23)ccc1=O | 9.51
O=c1cc(CSc2ccc(Cl)cc2)[nH]c2[nH]n(-c3ccccc3)c(=O)c12 | 12.9
COc1ccc(C(c2c(C)n(C)n(-c3ccccc3)c2=O)c2c(C)n(C)n(-c3ccccc3)c2=O)c(OC)c1OC | 22.4
CCOC(=O)NC(C)N1C(=O)C2C3C=CC(C3)C2C1=O (stereo not shown) | 9.96
NC(=O)c1cc2cc(Cc3ccccc3Cl)ccc2oc1=O | 1.33
COc1cc(-c2nn3c(C4CCCCC4)nnc3s2)cc(OC)c1OC | 5.33
CCCCOC(=O)C1=C(C)Nc2nnnn2C1c1ccccc1Cl (stereo not shown) | 12.6
COC(=O)c1ccc(/C=N/NS(=O)(=O)c2cc(C)ccc2C)cc1 | 4.33
CCOc1ncccc1C(=O)Nc1ccc(C)c(S(=O)(=O)N2CCCCCC2)c1 | 5.54
COc1ccc(N(CC(=O)NCc2ccco2)S(=O)(=O)c2c(C)nn(C)c2C)cc1 | 15.3
CCOc1ccc2c(c1)c(=O)c(S(=O)(=O)c1ccc(C)cc1)cn2CC | 7.16
COc1ccc(CCNC(=O)Cn2cnc3c(nnn3Cc3ccccc3F)c2=O)cc1OC | 7.09
Cc1nn(Cc2ccc(C(=O)N3CCN(C(=O)c4ccco4)CC3)o2)c(C)c1[N+](=O)[O-] | -1.07
Cc1cc(Cl)ccc1OCC(=O)Nc1nc(-c2cccs2)cs1 | 18.2
CCc1c(C)[nH]c2ccc(C)cc2c1=O | 20.9
CC(C)C(NC(=O)C1CCCCC1)C(=O)NC1CCCC(C)C1C (stereo not shown) | 15.2
Cc1c(Cl)cccc1N1CC(C)(C)C1=O | -11.7
O=C1NC(c2ccccn2)Nc2sc3c(c21)CCC3 (stereo not shown) | 8.58
COc1ccccc1NC(=O)CN(c1ccc(C)cc1)S(=O)(=O)c1c(C)n[nH]c1C | 8.89
FC(F)(F)c1cccc(OCCN2CCN(Cc3ccccc3)CC2)c1.O=C(O)C(=O)O | -3.24
Cc1ccc(CSc2cc(C)[nH]c(=O)n2)cc1 | 12
COc1ccc(OC)c(NC2=NC3(CCCC3)N=C(N)N2)c1 | 19.6

SMILES | hERG current change (%, negative = inhibition) at 1uM [%]
CCOc1ccc(NC(=O)NCCCSC2CCCCC2)cc1 | -0.541
COc1cccc(C(=O)NC(=S)N2CCN(c3ccc(C(F)(F)F)cc3[N+](=O)[O-])CC2)c1 | 11
CCC(C)NC(=O)Cn1c(=O)sc2ccccc21 (stereo not shown) | 10.9
O=C(c1cccs1)N1CCc2c([nH]c3ccccc23)C1c1ccc(Cl)cc1 (stereo not shown) | 7.24
Brc1ccccc1-n1nnc(-c2ccnc3ccccc23)n1 | 11.1
Cc1cnc([N+](=O)[O-])n1CCOC(=O)c1cccc(F)c1 | 12.5
O=C(NC1CCS(=O)(=O)C1)/C(=C/c1ccco1)NC(=O)c1ccccc1 (stereo not shown) | 2.96
Cc1ccnc(NC(=S)NC(=O)/C=C/c2ccc(Cl)cc2)c1 | -6.66
COc1cc(C2C3=C(CC(C)(C)CC3=O)N(C)C3=C2C(=O)CC(C)(C)C3)cc(Br)c1O | 13.8
O=C(c1ccc(N2CCCCS2(=O)=O)cc1)N1CCN(c2ccc(N3CCOCC3)nn2)CC1 | 15.9
Cc1ccc(NS(=O)(=O)c2ccc(C(=O)NCc3ccncc3)cc2)cc1 | 17.4
Cc1ccc(-n2c(SCC(=O)Nc3ccc(Cl)cc3)nc(O)cc2=O)cc1 | 7.52
Nc1cc2c(cc1O)CCCC2 | 16.1
CC1(C)NC(=O)N(CC(O)COc2ccccc2[N+](=O)[O-])C1=O (stereo not shown) | 13.4
O=C1CC(N2CCCCCC2)C(=O)N1c1ccc(F)cc1 (stereo not shown) | 18.5
O=S(=O)(Nc1nc2ccc(Cl)cc2s1)c1cccs1 | 16.9
COc1cc2cc(CCCOC(=O)c3ccc(Br)cc3)oc(=O)c2cc1OC | 11.4
O=C(OCCN1C(=O)c2ccccc2C1=O)c1cc(S(=O)(=O)N2CCOCC2)ccc1F | 14.5
CC/C(C)=N\Nc1nc(-c2cc3cc(OC)ccc3oc2=O)cs1 | 12.7
Cc1ccc(NS(=O)(=O)c2ccc3c(c2)NC(=O)CO3)cc1C | 14.5
O=C(NNc1nc2ccccc2s1)c1ccc(F)cc1 | 7.03
CCOC(=O)N1CCN(C(=O)CNC(=O)c2nn(-c3ccc(OC)c(OC)c3)c(=O)c3ccccc23)CC1 | 16.4

SMILES | hERG current change (%, negative = inhibition) at 1uM [%]
COc1ccccc1-n1c(SCC(=O)N2CCCCC2)nc2cccnc21 | 9.78
Cc1ccc(Cn2c(O)c(N=O)c3ccccc32)cc1 | 11.7
COc1ccc(/C=N\NC(=O)C2C(=O)NCC2c2ccccc2)cc1O (stereo not shown) | 11.1
Cc1ccn2c(=O)nc(SCC(=O)N3CCC(C)CC3)nc2c1 | 8.31
CCOC(=O)c1c(C)c(C(=O)NCc2ccco2)c(C)n1CC | 3.33
COc1ccc(CNC(=O)CN2CCC(n3nnc4cc(F)ccc43)CC2)cc1 | -43.4
CCn1c(C(C)NC(=O)c2ccc(C)cc2)n[nH]c1=S (stereo not shown) | 7.58
CC1(NC(=O)Nc2cccc3ccccc23)CCS(=O)(=O)C1 (stereo not shown) | 19.6
O=C(CCCNC(=O)c1ccc(Cl)cc1)OCc1cccc(Br)c1 | 11.2
O=C(COc1coc(CN2CCc3ccccc32)cc1=O)Nc1ccc([N+](=O)[O-])cc1 | 14.2
Cc1nn2cc(-c3ccc(N)cc3)nc2s1 | -12.2
O=c1c2c(ncn2C2CCCC2)n(Cc2ccccc2)c(=O)n1CCOc1ccc(Br)cc1 | 4.25
CCCc1cc(=O)[nH]c(SCc2cc(=O)oc3c(C)c(C)ccc23)n1 | 5.12
Cc1cnc(NC(=O)CSc2c(Cl)cccc2Cl)s1 | 10.5
COC(=O)c1ccc(NC(=O)Cn2nc(C)c3ccccc3c2=O)cc1 | 11.3
COc1ccc(S(=O)(=O)c2c(O)cc(C)c(NS(=O)(=O)c3ccccc3)c2C)cc1 | 16.8
O=C(Nc1ccc(Br)cc1)c1ccc(F)c(S(=O)(=O)NCc2cccs2)c1 | 11.7
CCOc1cc(/C=N/NC(=O)c2ccc(O)cc2)ccc1Oc1nc(Cl)ncc1F | -2.61
CN(C)CCCNC(=S)Nc1ccc(Oc2ccccc2)cc1 | 0.471
O=C(C[n+]1cnn(CC(=O)c2ccc(Cl)cc2Cl)c1)c1ccc([N+](=O)[O-])cc1.[Br-] | -35.6
COc1ccc2nc3c(cc2c1)c(NC(=O)C1CCCO1)nn3CC(C)C (stereo not shown) | 1.75
CCOC(=O)c1c(NC(=O)CSc2ncn[nH]2)sc(C)c1C | 5.42
